IC50 data for 27 compounds are collected here from patent US7772236B2, “Substituted pyrazoles” (Ortho McNeil Pharmaceutical, Inc., priority 2000, dated 2010).

The experiment deals with Recombinant human cathepsin S (CatS) (Homo sapiens, UniProt P25774). Kind of experiment: biochemical.

`COc1ccccc1N1CCN(CC(O)Cn2nc(-c3ccc(Cl)c(C)c3)c3c2CCN(C(C)=O)C3)CC1` (stereo not drawn) [Example 193, 1-(3-(4-Chloro-3-methyl-phenyl)-1-{2-hydroxy-3-[4-(2-methoxy-phenyl)-piperazin-1-yl]-propyl}-1,4,6,7-tetrahydro-pyrazolo[4,3-c]pyridin-5-yl)-ethanone]: the IC50 – broadly, the concentration that inhibits the measured activity by half – turned out to be 330 nM.
Under `CC(=O)N1CCc2c(c(-c3ccc(Cl)cc3)nn2CC(O)CN2CCN(S(=O)(=O)c3ccccc3Cl)CC2)C1` (stereo not drawn) [Example 195, 1-[1-{3-[4-(2-Chloro-benzenesulfonyl)-piperazin-1-yl]-2-hydroxy-propyl}-3-(4-chloro-phenyl)-1,4,6,7-tetrahydro-pyrazolo[4,3-c]pyridin-5-yl]-ethanone] stands 3300 nM; under `COc1ccccc1N1CCN(CC(O)Cn2nc(-c3ccc(Cl)cc3F)c3c2CCN(C(C)=O)C3)CC1` (stereo not drawn) [Example 196, 1-(3-(4-Chloro-2-fluoro-phenyl)-1-{2-hydroxy-3-[4-(2-methoxy-phenyl)-piperazin-1-yl]-propyl}-1,4,6,7-tetrahydro-pyrazolo[4,3-c]pyridin-5-yl)-ethanone], 1900 nM; under `Cc1ccccc1N1CCN(CC(O)Cn2nc(-c3ccc(Cl)cc3)c3c2CCN(C(=O)Cc2ccccc2)C3)CC1` (stereo not drawn) [Example 199, 1-{3-(4-Chloro-phenyl)-1-[2-hydroxy-3-(4-o-tolyl-piperazin-1-yl)-propyl]-1,4,6,7-tetrahydro-pyrazolo[4,3-c]pyridin-5-yl}-2-phenyl-ethanone], 1600 nM.
In the case of `CNC(=O)N1CCc2c(c(-c3ccc(Cl)cc3)nn2CC(O)CN2CCN(c3ccccc3C)CC2)C1` (stereo not drawn) [Example 205, 3-(4-Chloro-phenyl)-1-[2-hydroxy-3-(4-o-tolyl-piperazin-1-yl)-propyl]-1,4,6,7-tetrahydro-pyrazolo[4,3-c]pyridine-5-carboxylic acid methylamide] it was 950 nM; in that of `Cc1ccccc1N1CCN(CC(O)Cn2nc(-c3ccc(Cl)cc3)c3c2CCN(C(=O)NCCc2ccccc2)C3)CC1` (stereo not drawn) [Example 208, 3-(4-Chloro-phenyl)-1-[2-hydroxy-3-(4-o-tolyl-piperazin-1-yl)-propyl]-1,4,6,7-tetrahydro-pyrazolo[4,3-c]pyridine-5-carboxylic acid phenethyl-amide], 1500 nM.
Under `CC(=O)N1CCc2c(c(-c3ccc(Cl)c([N+](=O)[O-])c3)nn2CC(O)CN2CCN(c3ccccc3C#N)CC2)C1` (stereo not drawn) [Example 211, 2-(4-{3-[5-Acetyl-3-(4-chloro-3-nitro-phenyl)-4,5,6,7-tetrahydro-pyrazolo[4,3-c]pyridin-1-yl]-2-hydroxy-propyl}-piperazin-1-yl)-benzonitrile] stands 160 nM; under `CCN1CCCC1CNC(CN1CCN(c2ccccc2C)CC1)Cn1nc(-c2ccc(Cl)cc2)c2c1CCN(C(C)=O)C2` (stereo not drawn) [Example 214, 1-{3-(4-Chloro-phenyl)-1-[2-[(1-ethyl-pyrrolidin-2-ylmethyl)-amino]-3-(4-o-tolyl-piperazin-1-yl)-propyl]-1,4,6,7-tetrahydro-pyrazolo[4,3-c]pyridin-5-yl}-ethanone], 1900 nM; under `CC(=O)N1CCc2c(c(-c3ccc(Cl)c(N)c3)nn2CC(O)CN2CCN(c3ccccc3C#N)CC2)C1` (stereo not drawn) [Example 216, 2-(4-{3-[5-Acetyl-3-(3-amino-4-chloro-phenyl)-4,5,6,7-tetrahydro-pyrazolo[4,3-c]pyridin-1-yl]-2-hydroxy-propyl}-piperazin-1-yl)-benzonitrile], 1300 nM.
On to `Cc1ccccc1N1CCN(CC(O)Cn2nc(-c3ccc(Cl)cc3)c3c2CCNC3)CC1` (stereo not drawn) [Example 219, 1-[3-(4-Chloro-phenyl)-4,5,6,7-tetrahydro-pyrazolo[4,3-c]pyridin-1-yl]-3-(4-o-tolyl-piperazin-1-yl)-propan-2-ol], for which the IC50 is 10000 nM.
As to `CC(=O)N1CCc2c(c(-c3ccc(S(C)(=O)=O)cc3)nn2CC(O)CN2CCN(c3ccccc3C#N)CC2)C1` (stereo not drawn) [Example 221, 2-(4-{3-[5-Acetyl-3-(4-methanesulfonyl-phenyl)-4,5,6,7-tetrahydro-pyrazolo[4,3-c]pyridin-1-yl]-2-hydroxy-propyl}-piperazin-1-yl)-benzonitrile], the IC50 came to 820 nM.
In the case of `Cc1ccccc1N1CCN(CC(O)Cn2nc(-c3ccc(I)cc3)c3c2CCN(S(C)(=O)=O)C3)CC1` (stereo not drawn) [Example 223, 1-[3-(4-Iodo-phenyl)-5-methanesulfonyl-4,5,6,7-tetrahydro-pyrazolo[4,3-c]pyridin-1-yl]-3-(4-o-tolyl-piperazin-1-yl)-propan-2-ol] it was 230 nM; in that of `Cc1ccccc1N1CCN(CC(O)Cn2nc(-c3ccc(I)cc3)c3c2CCN(C(N)=O)C3)CC1` (stereo not drawn) [Example 224, 1-[2-Hydroxy-3-(4-o-tolyl-piperazin-1-yl)-propyl]-3-(4-iodo-phenyl)-1,4,6,7-tetrahydro-pyrazolo[4,3-c]pyridine-5-carboxylic acid amide], 140 nM; in that of `CCNC(=O)Nc1cc(-c2nn(CC(O)CN3CCN(c4ccccc4C)CC3)c3c2CN(C(C)=O)CC3)ccc1Cl` (stereo not drawn) [Example 228, 1-(5-{5-Acetyl-1-[2-hydroxy-3-(4-o-tolyl-piperazin-1-yl)-propyl]-4,5,6,7-tetrahydro-1H-pyrazolo[4,3-c]pyridin-3-yl}-2-chloro-phenyl)-3-ethyl-urea], 2700 nM.
In the case of `CC(=O)Nc1cc(-c2nn(CC(O)CN3CCN(c4ccccc4C)CC3)c3c2CN(C(C)=O)CC3)ccc1Cl` (stereo not drawn) [Example 230, N-(5-{5-Acetyl-1-[2-hydroxy-3-(4-o-tolyl-piperazin-1-yl)-propyl]-4,5,6,7-tetrahydro-1H-pyrazolo[4,3-c]pyridin-3-yl}-2-chloro-phenyl)-acetamide] it was 810 nM; in that of `CC(=O)N1CCc2c(c(-c3ccc(C(F)(F)F)cc3)nn2CC(CN2CCN(c3ccccc3C)CC2)OC(N)=O)C1` (stereo not drawn) [Example 237, Carbamic acid 2-[5-acetyl-3-(4-trifluoromethyl-phenyl)-4,5,6,7-tetrahydro-pyrazolo[4,3-c]pyridin-1-yl]-1-(4-o-tolyl-piperazin-1-ylmethyl)-ethyl ester], 1500 nM.
In the case of `Cc1ccccc1N1CCN(CC(O)Cn2nc(-c3ccc(Cl)cc3)c3c2CCC(=O)C3)CC1` (stereo not drawn) [Example 238, 3-(4-Chloro-phenyl)-1-[2-hydroxy-3-(4-o-tolyl-piperazin-1-yl)-propyl]-1,4,6,7-tetrahydro-indazol-5-one] it was 3600 nM; in that of `Cc1ccccc1N1CCN(CC(O)Cn2nc(-c3ccc(I)cc3)c3c2CCN(S(=O)(=O)C(C)C)C3)CC1` (stereo not drawn) [Example 245, 1-[3-(4-Iodo-phenyl)-5-(propane-2-sulfonyl)-4,5,6,7-tetrahydro-pyrazolo[4,3-c]pyridin-1-yl]-3-(4-o-tolyl-piperazin-1-yl)-propan-2-ol], 440 nM; in that of `CC(=O)N1CCc2c(c(-c3ccc(Cl)c(C)c3)nn2CC(O)CN2CCN(C(=O)Nc3ccccc3C)CC2)C1` (stereo not drawn) [Example 247, 4-{3-[5-Acetyl-3-(4-chloro-3-methyl-phenyl)-4,5,6,7-tetrahydro-pyrazolo[4,3-c]pyridin-1-yl]-2-hydroxy-propyl}-piperazine-1-carboxylic acid o-tolylamide], 4900 nM.
On to `CC(=O)N1CCc2c(c(-c3ccc(C(F)(F)F)c(Cl)c3)nn2CC(O)CN2CCN(c3ccccc3C#N)CC2)C1` (stereo not drawn) [Example 249, 2-(4-{3-[5-Acetyl-3-(3-chloro-4-trifluoromethyl-phenyl)-4,5,6,7-tetrahydro-pyrazolo[4,3-c]pyridin-1-yl]-2-hydroxy-propyl}-piperazin-1-yl)-benzonitrile], for which the IC50 amounted to 470 nM.
Consider `CC(=O)N1CCc2c(c(-c3ccc(Cl)c(C)c3)nn2CC(O)CN2CCN(Cc3ccccc3C#N)CC2)C1` (stereo not drawn) [Example 251, 2-(4-{3-[5-Acetyl-3-(4-chloro-3-methyl-phenyl)-4,5,6,7-tetrahydro-pyrazolo[4,3-c]pyridin-1-yl]-2-hydroxy-propyl}-piperazin-1-ylmethyl)-benzonitrile], for which the half-maximal inhibitory concentration (IC50) is 4600 nM.
In the case of `CC(=O)N1CCc2c(c(-c3ccc(Cl)c(Cl)c3)nn2CC(O)CN2CCN(c3ccccc3C#N)CC2)C1` (stereo not drawn) [Example 255, 2-(4-{3-[5-Acetyl-3-(3,4-dichloro-phenyl)-4,5,6,7-tetrahydro-pyrazolo[4,3-c]pyridin-1-yl]-2-hydroxy-propyl}-piperazin-1-yl)-benzonitrile] it was 400 nM.
In the case of `CC(=O)N1CCc2c(c(-c3ccc(C(F)(F)F)cc3)nn2CC(CN2CCN(c3ccccc3C#N)CC2)OCCN2CCOCC2)C1` (stereo not drawn) [Example 258, 2-{4-[3-[5-Acetyl-3-(4-trifluoromethyl-phenyl)-4,5,6,7-tetrahydro-pyrazolo[4,3-c]pyridin-1-yl]-2-(2-morpholin-4-yl-ethoxy)-propyl]-piperazin-1-yl}-benzonitrile] it was 390 nM; in that of `CC(=O)N1CCc2c(c(-c3ccc(C)c(Cl)c3)nn2CC(O)CN2CCN(c3ccccc3C#N)CC2)C1` (stereo not drawn) [Example 260, 2-(4-{3-[5-Acetyl-3-(3-chloro-4-methyl-phenyl)-4,5,6,7-tetrahydro-pyrazolo[4,3-c]pyridin-1-yl]-2-hydroxy-propyl}-piperazin-1-yl)-benzonitrile], 240 nM.
In the case of `CC(=O)N1CCc2c(c(-c3ccc(Br)c(Cl)c3)nn2CC(O)CN2CCN(c3ccccc3C#N)CC2)C1` (stereo not drawn) [Example 262, 2-(4-{3-[5-Acetyl-3-(4-bromo-3-chloro-phenyl)-4,5,6,7-tetrahydro-pyrazolo[4,3-c]pyridin-1-yl]-2-hydroxy-propyl}-piperazin-1-yl)-benzonitrile] it was 290 nM; in that of `Cc1ccccc1N1CCN(CCCn2nc(-c3ccc(C(F)(F)F)cc3)c3c2CCN(S(C)(=O)=O)C3)CC1` [Example 266, 5-Methanesulfonyl-1-[3-(4-o-tolyl-piperazin-1-yl)-propyl]-3-(4-trifluoromethyl-phenyl)-4,5,6,7-tetrahydro-1H-pyrazolo[4,3-c]pyridine], 190 nM; in that of `COc1ccccc1N1CCN(CCCn2nc(-c3ccc(C(F)(F)F)cc3)c3c2CCN(S(C)(=O)=O)C3)CC1` [Example 267, 5-Methanesulfonyl-1-{3-[4-(2-methoxy-phenyl)-piperazin-1-yl]-propyl}-3-(4-trifluoromethyl-phenyl)-4,5,6,7-tetrahydro-1H-pyrazolo[4,3-c]pyridine], 220 nM.
